# Experimental data from article PMC4336329 (PLoS ONE, 2015).
# In all, about 310,000 compounds went through this assay and about 14,000 (4.5%) showed an effect of 50% or more. Effects have a minus sign here. The list shows a part of the results.
# Target: human ether-à-go-go-related gene (hERG) potassium channel (human, UniProt Q12809)
# Assay: primary screen, population patch clamp on CHO cells stably expressing hERG
# 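Further: peak tail current of the secondary pulse compared with the same well before compound.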
# human ether-à-go-go-related gene (hERG) potassium channel, sequence (Q12809 whole entry, looked up): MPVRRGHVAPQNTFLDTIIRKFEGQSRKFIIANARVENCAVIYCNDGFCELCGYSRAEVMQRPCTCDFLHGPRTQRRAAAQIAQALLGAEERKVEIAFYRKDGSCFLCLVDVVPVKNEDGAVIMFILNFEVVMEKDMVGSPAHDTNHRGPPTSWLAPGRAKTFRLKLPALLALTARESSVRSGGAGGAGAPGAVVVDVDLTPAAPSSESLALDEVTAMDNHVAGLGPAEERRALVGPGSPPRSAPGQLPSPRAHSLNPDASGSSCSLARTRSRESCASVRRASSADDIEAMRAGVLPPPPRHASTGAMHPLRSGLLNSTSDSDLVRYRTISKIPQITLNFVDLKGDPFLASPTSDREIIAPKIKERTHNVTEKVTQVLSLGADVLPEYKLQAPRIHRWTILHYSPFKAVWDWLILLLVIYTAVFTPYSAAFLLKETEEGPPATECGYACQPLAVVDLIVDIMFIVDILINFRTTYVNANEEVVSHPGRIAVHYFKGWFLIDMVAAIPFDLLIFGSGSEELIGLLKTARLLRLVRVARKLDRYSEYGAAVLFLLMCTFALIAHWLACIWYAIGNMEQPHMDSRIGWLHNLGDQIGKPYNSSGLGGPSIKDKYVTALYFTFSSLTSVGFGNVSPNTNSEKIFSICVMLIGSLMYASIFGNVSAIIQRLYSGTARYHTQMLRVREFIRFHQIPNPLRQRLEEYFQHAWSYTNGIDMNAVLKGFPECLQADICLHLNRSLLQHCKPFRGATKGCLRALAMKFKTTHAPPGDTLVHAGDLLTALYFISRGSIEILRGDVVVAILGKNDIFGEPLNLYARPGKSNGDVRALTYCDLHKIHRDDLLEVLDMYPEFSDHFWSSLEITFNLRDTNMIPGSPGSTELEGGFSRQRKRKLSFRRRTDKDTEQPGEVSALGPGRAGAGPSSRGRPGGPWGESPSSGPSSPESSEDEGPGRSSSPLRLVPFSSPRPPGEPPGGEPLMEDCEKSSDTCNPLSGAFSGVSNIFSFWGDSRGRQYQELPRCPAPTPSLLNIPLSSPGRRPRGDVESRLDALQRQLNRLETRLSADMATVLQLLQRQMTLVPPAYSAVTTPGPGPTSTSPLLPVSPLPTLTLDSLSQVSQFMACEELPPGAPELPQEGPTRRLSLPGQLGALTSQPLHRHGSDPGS
row,SMILES,"hERG current change (%, negative = inhibition) at 10uM [%]"
1,C[C@@H](C(=O)N1CCN(C(=O)OC(C)(C)C)CC1)n1cc(CCC(=O)O)nn1,19.2
2,COc1ccc(Cc2nnc(NC(=O)c3ccc(OC(C)=O)cc3)s2)cc1OC,13
3,O=C(Cc1ccccc1)NCCSCc1ccc(Cl)cc1,-9.5
4,O=C(O)Cn1cc(F)c(=O)[nH]c1=O,6.86
5,COc1ccc(C(F)(F)F)cc1N/C=C\c1nnnn1-c1ccc(C)cc1,-13.4
6,O=C(CSc1cc(Cl)ccc1Cl)NCC(=O)Nc1ccc(F)c(F)c1F,5.97
7,C(=N\n1cnnc1)/c1ccc2c(c1)OCCO2,-4.87
8,COC(=O)c1sccc1NC(=O)C1CCCCC1C(=O)O (stereo not shown),14.7
9,Cc1ccc(NC(=O)Cn2ccc([N+](=O)[O-])n2)cc1Cl,-9.29
10,N/C(=N\OC(=O)CC1CCCCC1)c1ccccn1,-13.4
11,N#CCCCCN1c2cccc3cccc(c23)S1(=O)=O,-10.1
12,Cn1c(=O)c(=O)n(C)c2cc(S(=O)(=O)N3CCCC3C(=O)NCc3cccs3)ccc21 (stereo not shown),12.3
13,Cc1cccc2c3c([nH]c12)CCN(C)C3,10
14,Cc1cc(SC2CCOC2=O)nc2ccccc12 (stereo not shown),7.36
15,COc1cc(OC)c(/C=N/NC(=O)c2ccncc2)c(OC)c1,8.58
16,C#Cc1ccc([C@H]2C=C(C(=O)OCC=C)O[C@@H](OCC)[C@@H]2CCCO)cc1,-13.8
17,Clc1cccc(Cl)c1CO/N=C/c1c(-c2ccccc2)nc2n1CCS2,1.74
18,CCc1[nH]nc2c1C1(C(=O)N(Cc3ccccc3)c3ccccc31)C(C#N)=C(N)O2 (stereo not shown),1.94
19,CC(C)c1nnc(NC(=O)CCC(=O)NC2CCCCCC2)s1,16.5
20,Cc1ccc(C(=O)NNc2ncnc3c2cnn3C)cc1,15.2
21,CCOc1ccc2nc(COC(=O)c3cccc([N+](=O)[O-])c3)c(C(C)=O)[n+]([O-])c2c1,-0.667
22,C/C(=N/NC(N)=S)c1cc2ccc(O)cc2oc1=O,21.7
23,COc1ccc(NCc2cc(=O)oc3cc(NC(C)=O)ccc23)cc1,17.5
24,CCOC(=O)N1CCN(C(=O)C2CCN(Cc3cccc(OCc4ccccc4)c3)CC2)CC1.O=C(O)C(=O)O,-58.4
25,COC(=O)C(C(=O)OC)C(C[N+](=O)[O-])c1ccc(OC)c(OC)c1 (stereo not shown),-22.7
